# From the RNAGym collection of RNA variant scans (doi:10.7554/elife.90254)
# Read counts are not given, so values of variants with three or more changes are uncertain.
# B1: LINE1-full (parent)
# chain: UACGUAGGUGGUUUUCCCCUGAUAGUGCUAAGGGGGCCUGGAAGUUUGGACUGGGCAGAGCUCAACACAGCGUGGCAAAGUGGCUGUGGCUAGACUGCCUCUCUGGAUUCCUCGUCACUCAGCAGGGCAUCUCUGAGAGAAAUGCC
# Variants of: B1
# Experiment: self-cleavage, relative activity (ratio to wild type); higher = more cleavage; in vitro, sequencing; the parent is a self-cleaving ribozyme
row,Variant,self-cleavage
1,U26A A57U G58A,0
2,U26A A59G G60U,0.04
3,U26A A64G A140G,0.11
4,U26A A64G G74U G80A U109C U130C A141G,0.26
5,U26A A64G U132A,0.14
6,U26A A65G A67G G75U U87C,0.09
7,U26A A69G A107U A121U,0.67
8,U26A A78G A124G U134G,0.23
9,U26A A78G U108C,1.93
10,U26A A78U G83A G127A,0.72
11,U26A A94C U115C,0
12,U26A A117G C123G A124G,1.34
13,U26A A117G C146U,1.73
14,U26A A121G C145A,1.05
15,U26A A129G U130C A140G,0.94
16,U26A A141G C146U,0.86
17,U26A C38U A59G U96C U104C U115A,0.18
18,U26A C38U U112C U130C,1.27
19,U26A C63G A69C U115C,0.15
20,U26A C84A U115A U143C,0.06
21,U26A G32U U47A C84U U96A U115A C118U A129U U130C,0.03
22,U26A G35A U45A A59G U85G U87C G89U,0.07
23,U26A G36U U73A C95U,0.04
24,U26A G40A A57G,0.35

row,Variant,self-cleavage
1,U26A G55A U73A A124U,0.04
2,U26A G58U U119C,0.09
3,U26A G72A U134C,1.05
4,U26A G75A U81C U108C,0.37
5,U26A G97A U130C,0.06
6,U26A G137U A140G,1.53
7,U26A U29C A42G U46C A117G A129U G135C,1.53
8,U26A U29C A43U,0.92
9,U26A U39A A117G U132A,0.72
10,U26A U39A A138U,1.35
11,U26A U39A C71A,0.13
12,U26A U45C A78U,1.74
13,U26A U46C U52A A67C,0.12
14,U26A U46C U81A A121U,1.5
15,U26A U47A A69U U104C,0
16,U26A U47A A78U,1.25
17,U26A U47C A142G,1.26
18,U26A U52A A59G A69U G74A G89A,0.02
19,U26A U52A G88A A138U,0.04
20,U26A U52C A121U A142U,0.63
21,U26A U52C C63U,0.24
22,U26A U52G A64G A65U C145G,0
23,U26A U62C A65U,0.03
24,U26A U62C U81G,0.02

row,Variant,self-cleavage
1,U26A U73A A77U A140G,0.86
2,U26A U73C A94G A138G,0
3,U26A U85C A142G,0.31
4,U26A U87A C123G,0.08
5,U26A U87A U104C U115C,0
6,U26A U87C U100C C118A C123U,0.16
7,U26A U91C A140G,0.06
8,U26A U91C U96A,0.05
9,U26A U96C C98A U108C,0.21
10,U26A U96C U109A A140G,0.07
11,U26A U100A A136G,0.72
12,U26A U112C U130C A142G,0.62
13,U26A U115C A141G,0.94
14,U26A U115C G125U A141G,1.36
15,U26C A30G G33A U45C,1.91
16,U26C A31G A59G U81A A94U U104C A142C,0
17,U26C A31G A65G U112A,0
18,U26C A31G U112A,1.97
19,U26C A42G A50G A140G,0
20,U26C A42G A67G A136G,0.77
21,U26C A42G G114A A138U,0.3
22,U26C A42G U45C,0.38
23,U26C A43C A67U A77U,0.2
24,U26C A43G A78U U115A,2.08

row,Variant,self-cleavage
1,U26C A50G G74A U100A U119C G127A,0.46
2,U26C A50G G106A A124G A136G,0.54
3,U26C A57G U73C,2.3
4,U26C A57G U102C,0.42
5,U26C A57U A124G A140G,0
6,U26C A59G U87A,0
7,U26C A65G A67G G83A A117U A141G,0.06
8,U26C A67G G144U,0.33
9,U26C A67G U73A,0.53
10,U26C A67G U81A U85C,0
11,U26C A67U A129G,0.48
12,U26C A69G C123U U130C,0.63
13,U26C A77G A136U,1.22
14,U26C A77G U134A,2.46
15,U26C A77U U85C U91G A136U,0
16,U26C A77U U134A,0.55
17,U26C A78G A142G,1.4
18,U26C A79G A107U,1.15
19,U26C A79G A117U A121C U134C,1.93
20,U26C A92G G93A A124C,0
21,U26C A92U G125U A138G,0.74
22,U26C A107G U119C,0.33
23,U26C A124C U130C,0.92
24,U26C A129G A140G,1.36

row,Variant,self-cleavage
1,U26C C28A A79G A121G,0.66
2,U26C C37G A59U,1
3,U26C C37G U47A,1.32
4,U26C C38U A69G U73A U109A,0.22
5,U26C C56G U87A U115A A129G,0.03
6,U26C C63U A124C U132A,0.19
7,U26C C71U A79G,1.03
8,U26C C76U U130C U132C A136G,2.56
9,U26C C95A A142G,0.05
10,U26C C98G A136U A141U,0.18
11,U26C G27A C28A A117U,0.85
12,U26C G32A A42U A107G,0.43
13,U26C G32U U91C,0
14,U26C G34A C66U,0.04
15,U26C G34A U39A U46C,1.72
16,U26C G35A A107G U112C,0.88
17,U26C G35A G55A A64G A79G,0.1
18,U26C G35U A43U U115A A138G,1.27
19,U26C G40C A50G U109A U115G,1.84
20,U26C G41A G60A,0.02
21,U26C G41U U112C,1.56
22,U26C G49A G135A,0.7
23,U26C G53A A107G,0.94
24,U26C G55A A67U U119C,0.06

row,Variant,self-cleavage
1,U26C G82A U100C U112C,1.58
2,U26C G86A U109C,0
3,U26C G93A A142G,0.08
4,U26C G122A C128U A136G U143C,0.86
5,U26C U29A G41U A77U U134C,1.6
6,U26C U29C G49U A142G,0.77
7,U26C U29C U45A C68A C133A,0.04
8,U26C U29C U91C,0.95
9,U26C U29C U96C,0
10,U26C U39A U81A A94G U100C U134A,1.24
11,U26C U39C G74A,1
12,U26C U39G U130A,2.18
13,U26C U45A G53A,0.91
14,U26C U45A U46C U62C G75A G135A,0.04
15,U26C U45C A64U,1.05
16,U26C U45C A67U U81A,0.18
17,U26C U45C A78G U130C,0.77
18,U26C U45C A138G C146U,0.69
19,U26C U45C A140G,0.67
20,U26C U45C U132C C146U,1.74
21,U26C U46A A79G U100C U132C,1.02
22,U26C U46A U52A A67G A78G U130C,0
23,U26C U46A U100C U115C A124U,2.42
24,U26C U46C A57G U104C C116A,1.31

row,Variant,self-cleavage
1,U26C U46C A77U A121G,0.47
2,U26C U46C C84A,0.09
3,U26C U46C U81A,2.76
4,U26C U47A A117G,1.36
5,U26C U47A U52C U73A,0.5
6,U26C U47A U81C,1.19
7,U26C U47A U134A,1.41
8,U26C U47C A107G,1.23
9,U26C U47C C84U,0.2
10,U26C U47C U100C U130A,0
11,U26C U52A A77G,2.54
12,U26C U52A U134C,1.73
13,U26C U52C A57G G137A A140G,0.32
14,U26C U52C A65U U115C,0
15,U26C U52G A78G,0.92
16,U26C U62A A107G,0.14
17,U26C U62C A65G,0
18,U26C U62C A69U,0.03
19,U26C U62C U85A A142G,0.07
20,U26C U73A A94G U104A U130C,0.54
21,U26C U73C A140U U143C,0.84
22,U26C U73C U85A,0
23,U26C U81C G126A,1.44
